This is one part of the list.
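Further: jurkat cells carrying a lentiviral library of mutant zinc finger degrons fused to EGFP plus mCherry, mCherry+ cells FACS sorted, degron abundance counted by next-generation sequencing.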

In the assay the target is no compound (DMSO). Nature of the assay: log2 fold change of degron read counts, EGFP-low vs EGFP+ sorted cells; higher = lower degron-EGFP level without compound (poor expression or instability). As to conditions: compound: DMSO control; 18 h.
For the sequence FNCNQCGACFTQKGNLLRHIKL, the “log2 fold change of degron read counts” value is -0.745. In the case of FHCDICGATFTQKGNLLRHIKL, the “log2 fold change of degron read counts” value was -1.96. Turning to FSCEICGRNFTQKGNLLRHIKL, the “log2 fold change of degron read counts” value was -1.68. On to FCCEICGRDFTQKGNLLRHIKL, for which the “log2 fold change of degron read counts” value was -1.64. With FYCPQCGAQFTQKGNLLRHIKL the figure was -0.0917; with FMCSVCGHIFTQKGNLLRHIKL, 0.528. With FRCPQCGAIFTQKGNLLRHIKL the figure was -1.03; with FSCPICGHLFTQKGNLLRHIKL, -0.339. With LQCNQCGFCCTQKGNLLRHIKL the figure was 0.0806; with FCCPICGRSFTQKGNLLRHIKL, -0.392; with FICSVCGHWFTQKGNLLRHIKL, 0.133. Turning to FTCEICGHCFTQKGNLLRHIKL, the “log2 fold change of degron read counts” value was -2.55. With FQCEICGAMFTQKGNLLRHIKL, the “log2 fold change of degron read counts” value was -1.98. As to FHCPQCGAKFTQKGNLLRHIKL, the “log2 fold change of degron read counts” value is -0.605.

These data come from the supplement of paper PMC12645437, “Orthogonal IMiD-Degron Pairs Induce Selective Protein Degradation in Cells” (ACS Chemical Biology, 2025).
